± gives the standard deviation of the averaged measurements. The list shows a part of the results.
System: PfAP2-EXP AP2 domain (GST-tagged)
Assay: gcPBM binding intensity (ln(normalized median fluorescence intensity)); higher = stronger DNA binding
Summary of the method: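 An Agilent 4 × 180k array carrying primer-extended double-stranded 36-bp intergenic genomic probes and negative controls received GST-tagged P. falciparum DNA-binding domains expressed in E. coli, about 25 μg on average, for 1 h. The binding buffer contained 1× PBS, 1% milk, 0.2 mg/ml BSA, 0.5% salmon testes DNA and 0.03% Triton X-100. Binding intensity is the top Masliner-normalised natural-log median intensity across replicate spots of either probe orientation, read after Alexa488 anti-GST antibody staining and a 488 nm scan.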

Row | Sequence | gcPBM binding intensity (ln)
1 | GCAACCTTGTGCAAATGTACAAAAAAAAAAAAAAAA [XGTACX_site679] | 8.09 ± 0.26
2 | TTTTTATTGTTGCTATATTTATAACAATTTATCATA [GTGCAC_negctrl_site75] | 8.44 ± 0.35
3 | CAATTTATAAAGAAAACACACATATACATAAATACA [CACACA_site4829] | 8.82 ± 0.45
4 | TATATATAATATAGTGCATGTAAAAAATAAACCATG [TGCATGCA_site932] | 9.04 ± 0.28
5 | TATATATATGGACACACACACATATATATATATTTT [CACACA_site5409] | 8.69 ± 0.31
6 | ACAACTATTCATCATAGTACACGCATGATATATATA [XGTACX_site1539] | 8.62 ± 0.25
7 | AAAATTAATATCTTGGTGCATTTTTTAATATTATTA [GTGCAC_site9638] | 8.59 ± 0.16
8 | TATAAATTAAAACATTGTACATTTTTATTATTATGT [XGTACX_site579] | 8.29 ± 0.35
9 | TATCTTACTTTTTGCACACACTAATATTATTGTTTA [CACACA_site4990] | 9.18 ± 0.38
10 | AACTTGTATATATACACACACACACTGTCTTTTTTT [CACACA_site1963] | 9.04 ± 0.45
11 | TTCTTTAAAATGATATACGTTATAAATATATATATA [XGTACX_negctrl_site256] | 9.71 ± 0.014
12 | AGAACTTAATGCTGCACACAAAAAAAAGGAAAAATA [CACACA_site1353] | 8.51 ± 0.46
13 | AAAAAAAAGTTGTAAGTGCATGTATATAATAATATT | 8.87 ± 0.21
14 | TGATCACATAATAAATGTACAAAAAAAAATTAATAA [XGTACX_site5867] | 8.48 ± 0.46
15 | TTTAGATAATTCATTACACACATGTATATATATATA [CACACA_site3483] | 9.94 ± 0.33
16 | TAAGGAAGAAGAAAAAGTACTAAAGGTATAAATGCG [XGTACX_site2628] | 9.02 ± 0.47
17 | TTTTATTTTTAAAATTGTACATTATTATTGTTATTT [XGTACX_site1439] | 8.65 ± 0.64
18 | TGAATATTCATATGCACACAAATTAATATACATAAT [CACACA_site442] | 8.34 ± 0.33
19 | TATTATAGTCCGACTTTTTAATTTCTTTATTGTTTT [CACACA_negctrl_site1381] | 8.57 ± 0.36
20 | TTTTATGTTTTAAAATGTACGTGTCAATGAATAAGT [XGTACX_site6239] | 9.14 ± 0.25
21 | AAATTTTAATTAGACTGTACACATTTTAGAATAATT [XGTACX_site4819] | 8.3 ± 0.3
22 | TATTTGTTCTGATCCTTTTATTCAACTTTTTTTTTT [CACACA_negctrl_site978] | 8.79 ± 0.59

Row | Sequence | gcPBM binding intensity (ln)
23 | GGCTAAAAGTTGCACACACACAAAAAAAAAAAAAAA [CACACA_site7531] | 8.47 ± 0.19
24 | ACCTTAATTATAATAACACACGAAAAGTGGACACAT [CACACA_site1750] | 9.23 ± 0.44
25 | TATTATTATATATATAGTACATAAAATATAAAAAAA [XGTACX_site2060] | 8.45 ± 0.42
26 | ATGTCACAATTTTTCACACACAAAATTTAAATACAT [CACACA_site5168] | 8.64 ± 0.42
27 | TAATTATGCGGACACACACACACACCCAACTAAAAA [CACACA_site5427] | 8.74 ± 0.42
28 | GCATTATTATATATTTGTACATATTTTTTTTTAAAA [XGTACX_site5436] | 9.01 ± 0.22
29 | TTTTTTAAATTATATTATAGCAAATAAATATTAAAA [CACACA_negctrl_site1655] | 7.95 ± 0.42
30 | TTTTTTTTTTAAATGTGTCCTCATTATAATATATGT [XGTACX_site5331] | 8.37 ± 0.49
31 | AATAAAACATCATCATGTACAAAATTCGTCTTTGTA [XGTACX_site4821] | 8.24 ± 0.41
32 | AATTATATATAAAGAAGTACTATTTCAAGGAGTTTT [XGTACX_site3837] | 8.46 ± 0.32
33 | CAAAATATATATGACACACACAAAAAAAGTATATTA [CACACA_site1589] | 8.6 ± 0.41
34 | TCAAATTTTCAACATTGTACATAAATGTATAAATAT [XGTACX_site6042] | 8.25 ± 0.35
35 | TATTGATATATATATATATATATATGTATATACTTA [GTGCAC_negctrl_site111] | 8.49 ± 0.21
36 | TTCGCTGTTTTAATTAGTACTTATATATAATATTAT [XGTACX_site1149] | 9.01 ± 0.38
37 | CTAAACCTTTTGAGCACACATATATATATATATATA [CACACA_site1782] | 10.4 ± 0.16
38 | TTTTTATTTTCATATGTGCACTTATATATATATATA | 10.1 ± 0.27
39 | TTTTTATATAAGAAAAAATTATAACAATTTGTTAAT [XGTACX_negctrl_site422] | 7.89 ± 0.56
40 | TACAAAAATGTAGTCACACATATGTATACTTTTATG [CACACA_site5607] | 8.41 ± 0.42
41 | AGTAATAATATAATTTGTACATATATATATTATAAA [XGTACX_site7138] | 8.33 ± 0.35
42 | AGTTTTATGTAGTGTTGTACTTTATACAAATATATA [XGTACX_site990] | 8.7 ± 0.35
43 | TTTCTAATTTATATCACACACATATATAAATAGTAA [CACACA_site6156] | 8.39 ± 0.35
44 | ATATATATAATTTAAAGTACATATTTAAGAATGAAA [XGTACX_site2238] | 8.43 ± 0.23

Reference: the supplement of paper PMC11417369
